# Data as given in PubChem BioAssay AID2675 (National Center for Advancing Translational Sciences (NCATS), 2010).
# Among all 280,000 compounds or so, about 100 (0.036%) were called active. Inconclusive results, whose numbers are uncertain, are shown with a selection of clear calls. Calls come from the whole dose curve; as a rule, active = well fitted inhibition curve with a large enough effect in the signal ratio, with a control signal flat (not every such curve was filed as active); inconclusive = small, poorly fitted or top-dose-only effect, or effect the other way, or a change in a side signal; inactive = no such curve, though single readings can be large or run the other way; the % refers to the signal ratio. Where the call is inconclusive, the potency comes from a doubtful curve fit. “Side channel” marks fits to a control or component signal instead of the main read-out.
# Target: Muscleblind-like protein 1 (Homo sapiens) (UniProt Q9NR56)
# Assay: qHTS Assay for Inhibitors of MBNL1-poly(CUG) RNA binding
# Conditions: TR-FRET MBNL1-His/biotin-(CUG)12 binding, 665/545 ratio; activity change, negative = inhibition: at 57.5 µM (top of the series)
# In short: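 Compound titration spanned 92 nM–58 uM against the MBNL1-His/biotin-(CUG)12 complex. After 60 min at room temperature with 5 nM streptavidin-XL665 and 0.055 ng/ul terbium anti-His, ratiometric 665/545 nm emission (Ex 340 nm) normalized to controls.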
# % is set by controls: 0 for no effect and ±100 for the full control effect; potency is the fitted concentration of half-maximal effect; tags give direction and shape of the fitted curve or compound fluorescence and quenching.
# UniProt Q9NR56, sequence (Q9NR56 whole entry, looked up): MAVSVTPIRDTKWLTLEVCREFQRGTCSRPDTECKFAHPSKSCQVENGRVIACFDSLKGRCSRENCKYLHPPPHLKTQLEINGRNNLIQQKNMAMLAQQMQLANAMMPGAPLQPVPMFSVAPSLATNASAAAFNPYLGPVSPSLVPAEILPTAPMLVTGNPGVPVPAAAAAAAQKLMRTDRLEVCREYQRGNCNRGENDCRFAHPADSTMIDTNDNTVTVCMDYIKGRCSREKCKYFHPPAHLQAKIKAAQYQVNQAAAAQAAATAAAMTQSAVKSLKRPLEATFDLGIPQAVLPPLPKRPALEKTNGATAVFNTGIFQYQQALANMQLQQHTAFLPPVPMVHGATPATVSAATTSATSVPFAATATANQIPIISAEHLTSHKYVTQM
Structure (SMILES),Potency,"activity change, negative = inhibition"
COc1cc2c(cc1OC)C1=NC(=O)CN1C(SCc1ccc(C)cc1)=N2,"inconclusive: 17.8 µM [quencher, side channel, single point]",–
C=CCn1c(SCC(=O)NC(=O)c2cccc([N+](=O)[O-])c2)nnc1-c1ccccc1F,"inconclusive: 28.2 µM [quencher, side channel, partial curve]",–
NS(=O)(=O)c1ccc(NC(=S)NCc2ccc3c(c2)OCO3)cc1,–,inactive: -0.263%
O=C(Nc1ncc(Cc2cccc(Cl)c2)s1)C1=NCCN1,–,inactive: 3.92%
Cc1nn(-c2ccccc2)c2c1C1(C(=O)N(C)c3ccccc31)C(C#N)=C(N)O2 (configuration not stated),–,inactive: 8.43%
Cc1noc(C)c1CSc1nc2ccccc2n1CCc1ccccc1,–,inactive: 3.46%
Cc1ccc(N(NC(=O)C(O)(c2ccccc2)c2ccccc2)C(=O)CCl)cc1,–,inactive: -4.34%
CN(C(=O)COc1ccc2c(-c3ccccc3)cc(=O)oc2c1)C1CCS(=O)(=O)C1 (configuration not stated),"inconclusive: 15.8 µM [quencher, side channel, partial curve]",–
CSc1nc2ccc(NS(=O)(=O)c3ccc([N+](=O)[O-])cc3)cc2s1,"inconclusive: 12.6 µM [quencher, side channel, partial curve]",–
Cc1ccc(N(C(=O)c2snc(C(N)=O)c2N)C(C(=O)NCC2CCCO2)c2ccc3ncccc3c2)cc1 (configuration not stated),"inconclusive: 22.4 µM [quencher, side channel, single point]",–
O=C(NC1CC1)C1CC(=O)N(c2cccc(Cl)c2Cl)C1 (configuration not stated),"inconclusive: 39.8 µM [quencher, single point]",–
NS(=O)(=O)c1ccc(-c2ccc(C=NC3CCS(=O)(=O)C3)o2)cc1 (configuration not stated),"inconclusive: 14.1 µM [quencher, side channel, partial curve]",–
O=C1N(Cc2cccnc2)C[C@@H]2C[C@@H](c3ccc4nonc4c3)N3CCC[C@@]123,"inconclusive: 22.4 µM [quencher, side channel, partial curve]",–
O=C(COC(=O)CCCN1C(=O)c2cccc3cccc(c23)C1=O)Nc1cccc(C(F)(F)F)c1,"inconclusive: 6.31 µM [quencher, side channel, full curve]",–
Oc1cccc2c(NC(=S)Nc3ccc(SC(F)F)cc3)cccc12,"inconclusive: 5.62 µM [quencher, side channel, full curve, poor fit]",–
O=C(NC(NNc1ccc([N+](=O)[O-])cc1)(C(F)(F)F)C(F)(F)F)c1ccccc1Cl,"inconclusive: 17.8 µM [quencher, single point]",–
CCOn1c(=O)c(C)[n+]([O-])c2ccccc21,"inconclusive: 17.8 µM [quencher, side channel, partial curve]",–
COc1ccc(C(=O)CSc2nn3c(=O)c(C(C)(C)C)nnc3s2)cc1,"inconclusive: 39.8 µM [fluorescent, single point]",–
Cc1ccc(/C=N/NC(=O)c2cccc(NC(=O)c3ccccc3C)c2)o1,"inconclusive: 28.2 µM [quencher, side channel, single point]",–

Structure (SMILES),Potency,"activity change, negative = inhibition"
COc1cccc(N2C(=O)CC(N3CCN(c4ccc([N+](=O)[O-])cc4)CC3)C2=O)c1 (configuration not stated),"inconclusive: 10 µM [quencher, side channel, partial curve]",–
O=C(COC(=O)c1ccc2c(c1[N+](=O)[O-])C(=O)c1ccccc1C2=O)NC1CC1,"inconclusive: 14.1 µM [quencher, side channel, partial curve]",–
O=C(CN1CCC(NC(=O)Nc2ccc(F)cc2)CC1)Nc1ccccc1[N+](=O)[O-],"inconclusive: 22.4 µM [quencher, side channel, partial curve]",–
COc1ccccc1N1CSC2=C(C#N)C(c3ccc(SC)cc3)CC(=O)N2C1 (configuration not stated),–,inactive: 21.3%
Fc1ccc2c(c1)c1n[nH]c(=S)nc1n2CCc1ccccc1,"inconclusive: 5.62 µM [quencher, side channel, partial curve]",–
CCN(C(=O)CCS(=O)(=O)c1cccc2nsnc12)c1cccc(C)c1,"inconclusive: 12.6 µM [quencher, side channel, partial curve]",–
O=c1cc(CO)oc(CN2CCN(c3cccc(C(F)(F)F)c3)CC2)c1O,–,inactive: 5.36%
COc1ccc(NC(=O)COC(=O)/C=C/c2ccccc2[N+](=O)[O-])cc1OC,"inconclusive: 12.6 µM [quencher, side channel, single point]",–
COc1ccc(CNC(=O)/C=C/c2ccccc2[N+](=O)[O-])cc1,"inconclusive: 7.94 µM [quencher, side channel, full curve, poor fit]",–
Cc1cccc(C(=O)N2CCN(c3ccc([N+](=O)[O-])c(NCc4ccco4)c3)CC2)c1,"inconclusive: 20 µM [quencher, side channel, partial curve]",–
CCOCN(C(=O)Cn1c(C(C)O)nc2ccccc21)c1c(C)cccc1CC (configuration not stated),"inconclusive: 39.8 µM [inhibitor, single point]",–
CC(C)C(NC(=O)c1ccccc1)C(=O)OCc1cc([N+](=O)[O-])cc2c1OCOC2 (configuration not stated),"inconclusive: 2.82 µM [quencher, side channel, single point]",–
N/C(=N\NC(=O)c1sccc1OCc1ccc(Cl)cc1Cl)c1ccccn1,–,inactive: -3.7%
O=C(Nc1nccs1)c1ccc2nccnc2c1,"inconclusive: 15.8 µM [quencher, side channel, partial curve]",–
O=S(=O)(Nc1ccc(Br)cc1)c1cccc2nonc12,"inconclusive: 25.1 µM [quencher, side channel, partial curve]",–
COc1ccc(C(=O)NC2=C(C#N)CCC2)cc1OC,"inconclusive: 8.91 µM [quencher, side channel, single point]",–
C[C@]1(C(=O)NCCc2c[nH]c3ccccc23)C=C[C@@H](Cc2ccccc2)N1C(=O)c1ccccc1,"inconclusive: 79.4 µM [inhibitor, single point]",–
C=CCSc1nnc2nc3c(nn12)c1cc(C)ccc1n3CC=C,"inconclusive: 4.47 µM [quencher, full curve]",–
